# Test results published in the supplement of paper PMC8728848.
# The other results are listed elsewhere or left out.
# B1: Sebin2 (Coprinopsis cinerea), A8PE78 (protein)
# chain: MTTPFYAYCHNVQDDNTWRLGLVFANRSTADEWWRAISEATSSIPITKSITRVTPQYYTHDIRVWNMYNFFVDGNIKSISDKFRGRLFITLEYDRSGRGVSVFPPLHIVDHVSGNWYYIRSKTAPHLFWFYDETRNAIYASKEKRTRFKVSIRNPSPQTPKDAIMINSDDVVIHIKESLYVGVDSYLGHIIPTRAYRTFKFGELEGGAIAGIEVAENAEERCSSTFDGASLYFVGPDSSSPGEPWELV
# Legend:
# Test in all cases: glycan array binding signal (z-score within array); higher = stronger binding
# Conditions in all cases: glycan notation: IUPAC condensed, linker removed
# [1] = target: Neu5Ac(a2-3)Gal(b1-3)GlcNAc
# Outline: (§1)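 Glycan array data were curated from 3228 arrays in the Consortium for Functional Glycomics database and kept only where the protein sequence was available. Glycan names were converted to IUPAC-condensed notation, and columns mapping to the same glycan were averaged. The binding signal is a within-array Z-score, averaged across arrays of the same protein sequence at different concentrations or buffers and across linkers. Negative Z-scores can be read as non-binding.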
# [2] = target: Neu5Ac(a2-3)Gal(b1-3)GlcNAc(b1-2)Man
# Outline: as §1
# [3] = target: Neu5Ac(a2-3)Gal(b1-3)GlcNAc(b1-2)Man(a1-3)[GlcNAc(b1-4)][Neu5Ac(a2-3)Gal(b1-3)GlcNAc(b1-2)Man(a1-6)]Man(b1-4)GlcNAc(b1-4)GlcNAc
# Outline: as §1
# [4] = target: Neu5Ac(a2-3)Gal(b1-3)GlcNAc(b1-2)Man(a1-3)[Neu5Ac(a2-3)Gal(b1-3)GlcNAc(b1-2)Man(a1-6)]Man(b1-4)GlcNAc(b1-4)GlcNAc
# Outline: as §1
# [5] = target: Neu5Ac(a2-3)Gal(b1-3)GlcNAc(b1-2)[Neu5Ac(a2-3)Gal(b1-3)GlcNAc(b1-4)]Man(a1-6)[Neu5Ac(a2-3)Gal(b1-3)GlcNAc(b1-2)Man(a1-3)]Man(b1-4)GlcNAc(b1-4)GlcNAc
# Outline: as §1
# [6] = target: Neu5Ac(a2-3)Gal(b1-3)GlcNAc(b1-3)Gal(b1-3)GlcNAc
# Outline: as §1
# [7] = target: Neu5Ac(a2-3)Gal(b1-3)GlcNAc(b1-3)Gal(b1-4)GlcNAc
# Outline: as §1
# [8] = target: Neu5Ac(a2-3)Gal(b1-3)GlcNAc(b1-3)GalNAc
# Outline: as §1
# [9] = target: Neu5Ac(a2-3)Gal(b1-3)GlcNAc(b1-6)GalNAc
# Outline: as §1
# [10] = target: Neu5Ac(a2-3)Gal(b1-3)GlcNAc6S
# Outline: as §1
# [11] = target: Neu5Ac(a2-3)Gal(b1-3)[Fuc(a1-4)]GlcNAc
# Outline: as §1
# [12] = target: Neu5Ac(a2-3)Gal(b1-3)[Fuc(a1-4)]GlcNAc(b1-3)Gal(b1-3)[Fuc(a1-4)]GlcNAc
# Outline: as §1
# [13] = target: Neu5Ac(a2-3)Gal(b1-3)[Fuc(a1-4)]GlcNAc(b1-3)Gal(b1-4)[Fuc(a1-3)]GlcNAc
# Outline: as §1
# [14] = target: Neu5Ac(a2-3)Gal(b1-3)[GlcNAc(b1-6)]GalNAc
# Outline: as §1
# [15] = target: Neu5Ac(a2-3)Gal(b1-3)[Neu5Ac(a2-6)]GalNAc
# Outline: as §1
# [16] = target: Neu5Ac(a2-3)Gal(b1-3)[Neu5Ac(a2-6)]GlcNAc(b1-3)[Fuc(a1-3)[Gal(b1-4)]GlcNAc(b1-6)]Gal(b1-4)Glc
# Outline: as §1
# [17] = target: Neu5Ac(a2-3)Gal(b1-3)]Neu5Ac(a2-3)Gal(b1-4)]GlcNAc
# Outline: as §1
# Neu5Ac(a2-3)Gal(b1-4)Glc = target: Neu5Ac(a2-3)Gal(b1-4)Glc
# Outline: as §1
# [18] = target: Neu5Ac(a2-3)Gal(b1-4)GlcNAc
# Outline: as §1
# [19] = target: Neu5Ac(a2-3)Gal(b1-4)GlcNAc(b1-2)Man
# Outline: as §1
# [20] = target: Neu5Ac(a2-3)Gal(b1-4)GlcNAc(b1-2)Man(a1-3)[GlcNAc(b1-4)][Neu5Ac(a2-3)Gal(b1-4)GlcNAc(b1-2)Man(a1-6)]Man(b1-4)GlcNAc(b1-4)GlcNAc
# Outline: as §1
# [21] = target: Neu5Ac(a2-3)Gal(b1-4)GlcNAc(b1-2)Man(a1-3)[Neu5Ac(a2-3)Gal(b1-4)GlcNAc(b1-2)Man(a1-6)]Man(b1-4)GlcNAc(b1-4)GlcNAc
# Outline: as §1
# [22] = target: Neu5Ac(a2-3)Gal(b1-4)GlcNAc(b1-2)Man(a1-3)[Neu5Ac(a2-3)Gal(b1-4)GlcNAc(b1-2)Man(a1-6)]Man(b1-4)GlcNAc(b1-4)[Fuc(a1-6)]GlcNAc
# Outline: as §1
# [23] = target: Neu5Ac(a2-3)Gal(b1-4)GlcNAc(b1-2)Man(a1-3)[Neu5Ac(a2-6)Gal(b1-4)GlcNAc(b1-2)Man(a1-6)]Man(b1-4)GlcNAc(b1-4)GlcNAc
# Outline: as §1
# [24] = target: Neu5Ac(a2-3)Gal(b1-4)GlcNAc(b1-2)[Neu5Ac(a2-3)Gal(b1-4)GlcNAc(b1-4)]Man(a1-3)[GlcNAc(b1-4)][Neu5Ac(a2-3)Gal(b1-4)GlcNAc(b1-2)[Neu5Ac(a2-3)Gal(b1-4)GlcNAc(b1-6)]Man(a1-6)]Man(b1-4)GlcNAc(b1-4)GlcNAc
# Outline: as §1
# [25] = target: Neu5Ac(a2-3)Gal(b1-4)GlcNAc(b1-2)[Neu5Ac(a2-3)Gal(b1-4)GlcNAc(b1-4)]Man(a1-3)[GlcNAc(b1-4)][Neu5Ac(a2-3)Gal(b1-4)GlcNAc(b1-4)Man(a1-6)]Man(b1-4)GlcNAc(b1-4)GlcNAc
# Outline: as §1
# [26] = target: Neu5Ac(a2-3)Gal(b1-4)GlcNAc(b1-2)[Neu5Ac(a2-3)Gal(b1-4)GlcNAc(b1-6)]Man(a1-6)[Neu5Ac(a2-3)Gal(b1-4)GlcNAc(b1-2)Man(a1-3)][GlcNAc(b1-4)]Man(b1-4)GlcNAc(b1-4)GlcNAc
# Outline: as §1
# [27] = target: Neu5Ac(a2-3)Gal(b1-4)GlcNAc(b1-3)Gal
# Outline: as §1
# [28] = target: Neu5Ac(a2-3)Gal(b1-4)GlcNAc(b1-3)Gal(b1-3)GlcNAc
# Outline: as §1
# [29] = target: Neu5Ac(a2-3)Gal(b1-4)GlcNAc(b1-3)Gal(b1-4)GlcNAc
# Outline: as §1
# [30] = target: Neu5Ac(a2-3)Gal(b1-4)GlcNAc(b1-3)Gal(b1-4)GlcNAc(b1-2)Man(a1-3)[Neu5Ac(a2-3)Gal(b1-4)GlcNAc(b1-3)Gal(b1-4)GlcNAc(b1-2)Man(a1-6)]Man(b1-4)GlcNAc(b1-4)GlcNAc
# Outline: as §1
# [31] = target: Neu5Ac(a2-3)Gal(b1-4)GlcNAc(b1-3)Gal(b1-4)GlcNAc(b1-3)Gal(b1-4)GlcNAc
# Outline: as §1
# [32] = target: Neu5Ac(a2-3)Gal(b1-4)GlcNAc(b1-3)Gal(b1-4)GlcNAc(b1-3)Gal(b1-4)GlcNAc(b1-2)Man(a1-3)[Neu5Ac(a2-3)Gal(b1-4)GlcNAc(b1-3)Gal(b1-4)GlcNAc(b1-3)Gal(b1-4)GlcNAc(b1-2)Man(a1-6)]GalNAc
# Outline: as §1
# [33] = target: Neu5Ac(a2-3)Gal(b1-4)GlcNAc(b1-3)Gal(b1-4)GlcNAc(b1-3)GalNAc
# Outline: as §1
# [34] = target: Neu5Ac(a2-3)Gal(b1-4)GlcNAc(b1-3)Gal(b1-4)GlcNAc(b1-3)[Neu5Ac(a2-3)Gal(b1-4)GlcNAc(b1-3)Gal(b1-4)GlcNAc(b1-6)]GalNAc
# Outline: as §1
# [35] = target: Neu5Ac(a2-3)Gal(b1-4)GlcNAc(b1-3)Gal(b1-4)GlcNAc(b1-6)[Gal(b1-3)]GalNAc
# Outline: as §1
# [36] = target: Neu5Ac(a2-3)Gal(b1-4)GlcNAc(b1-3)Gal(b1-4)[Fuc(a1-3)]GlcNAc
# Outline: as §1
# [37] = target: Neu5Ac(a2-3)Gal(b1-4)GlcNAc(b1-3)GalNAc
# Outline: as §1
binder,measurement,setting,value
B1,glycan array binding signal (z-score),[1],-0.181
same,glycan array binding signal (z-score),[2],-0.261
same,glycan array binding signal (z-score),[3],0.192
same,glycan array binding signal (z-score),[4],-0.166
same,glycan array binding signal (z-score),[5],0.057
same,glycan array binding signal (z-score),[6],-0.446
same,glycan array binding signal (z-score),[7],-0.391
same,glycan array binding signal (z-score),[8],-0.169
same,glycan array binding signal (z-score),[9],-0.022
same,glycan array binding signal (z-score),[10],-0.072
same,glycan array binding signal (z-score),[11],-0.027
same,glycan array binding signal (z-score),[12],-0.079
same,glycan array binding signal (z-score),[13],-0.391
same,glycan array binding signal (z-score),[14],-0.419
same,glycan array binding signal (z-score),[15],-0.41
same,glycan array binding signal (z-score),[16],-0.228
same,glycan array binding signal (z-score),[17],-0.097
same,glycan array binding signal (z-score),Neu5Ac(a2-3)Gal(b1-4)Glc,8.35
same,glycan array binding signal (z-score),[18],-0.229
same,glycan array binding signal (z-score),[19],0.448
same,glycan array binding signal (z-score),[20],-0.15
same,glycan array binding signal (z-score),[21],-0.075
same,glycan array binding signal (z-score),[22],-0.242
same,glycan array binding signal (z-score),[23],-0.277
same,glycan array binding signal (z-score),[24],-0.053
same,glycan array binding signal (z-score),[25],-0.204
same,glycan array binding signal (z-score),[26],-0.187
same,glycan array binding signal (z-score),[27],0.088
same,glycan array binding signal (z-score),[28],0.2
same,glycan array binding signal (z-score),[29],-0.336
same,glycan array binding signal (z-score),[30],0.213
same,glycan array binding signal (z-score),[31],-0.201
same,glycan array binding signal (z-score),[32],-0.082
same,glycan array binding signal (z-score),[33],0.042
same,glycan array binding signal (z-score),[34],0.067
same,glycan array binding signal (z-score),[35],0.054
same,glycan array binding signal (z-score),[36],-0.22
same,glycan array binding signal (z-score),[37],0.079
